Laboratory results: PMC4336329 (PLoS ONE, 2015)
In all, about 310,000 compounds went through this assay and about 14,000 (4.5%) showed an effect of 50% or more. Effects have a minus sign here. The list shows a part of the results.

The compounds below were run against human ether-à-go-go-related gene (hERG) potassium channel (human, UniProt Q12809) (assay: primary screen, population patch clamp on CHO cells stably expressing hERG).
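Also: peak tail current of the secondary pulse compared with the same well before compound.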

Chain of human ether-à-go-go-related gene (hERG) potassium channel (Q12809 whole entry, looked up): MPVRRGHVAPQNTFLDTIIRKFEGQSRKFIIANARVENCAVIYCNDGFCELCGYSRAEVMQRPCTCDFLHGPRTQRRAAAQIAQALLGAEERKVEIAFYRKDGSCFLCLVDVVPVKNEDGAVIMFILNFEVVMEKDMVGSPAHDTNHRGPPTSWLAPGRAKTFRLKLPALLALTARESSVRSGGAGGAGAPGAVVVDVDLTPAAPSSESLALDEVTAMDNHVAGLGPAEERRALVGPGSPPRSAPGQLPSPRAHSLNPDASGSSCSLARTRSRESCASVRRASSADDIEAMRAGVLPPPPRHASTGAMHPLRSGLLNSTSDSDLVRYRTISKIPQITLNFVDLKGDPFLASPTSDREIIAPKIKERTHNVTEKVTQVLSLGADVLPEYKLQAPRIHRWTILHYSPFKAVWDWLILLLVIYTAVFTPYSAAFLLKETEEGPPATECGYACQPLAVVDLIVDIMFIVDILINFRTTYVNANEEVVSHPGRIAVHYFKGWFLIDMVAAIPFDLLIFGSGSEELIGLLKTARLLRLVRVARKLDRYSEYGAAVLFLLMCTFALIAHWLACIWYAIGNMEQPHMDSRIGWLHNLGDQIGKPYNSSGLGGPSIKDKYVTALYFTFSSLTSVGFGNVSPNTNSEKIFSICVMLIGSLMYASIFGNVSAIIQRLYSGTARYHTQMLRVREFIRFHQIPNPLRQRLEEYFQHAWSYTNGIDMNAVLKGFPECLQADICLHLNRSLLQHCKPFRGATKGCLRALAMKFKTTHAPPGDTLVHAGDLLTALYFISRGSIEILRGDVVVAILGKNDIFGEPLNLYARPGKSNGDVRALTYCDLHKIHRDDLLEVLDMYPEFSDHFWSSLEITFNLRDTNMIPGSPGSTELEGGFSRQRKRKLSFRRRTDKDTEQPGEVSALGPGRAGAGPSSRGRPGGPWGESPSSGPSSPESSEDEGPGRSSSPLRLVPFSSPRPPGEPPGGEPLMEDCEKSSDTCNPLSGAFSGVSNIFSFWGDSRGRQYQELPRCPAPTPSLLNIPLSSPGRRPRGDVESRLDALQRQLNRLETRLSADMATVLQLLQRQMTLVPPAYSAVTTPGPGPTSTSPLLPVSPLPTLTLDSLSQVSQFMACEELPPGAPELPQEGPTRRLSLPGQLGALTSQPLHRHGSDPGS

Compound | hERG current change (%, negative = inhibition) at 10uM [%]
O=C(CCC(=O)Nc1cccc2ccccc12)N/N=C/c1ccco1 | -1.8
O=C(O)C(=O)O.O=[N+]([O-])c1ccc(CNC2CCCc3ccccc32)cc1 (centres unmarked) | -51.7
Oc1ccccc1/C=N/n1c(-c2cccs2)n[nH]c1=S | 4.74
O=S(=O)(NCc1cccnc1)c1ccccc1 | 10.8
O=C(Nn1c(-c2ccccc2)nc2ccccc2c1=O)c1ccco1 | 3.87
Cc1cs/c(=N\N=C\c2ccc(O)cc2)n1Cc1ccco1 | -24.2
CN1CC2=CC(O)CC3Oc4c(O)ccc(c4[C@]23C)C1 (some centres unmarked) | 23.3
O=C1NC(=O)/C(=C/c2ccccn2)S1 | 16.1
COc1cc(CCC(=O)OCC(=O)Nc2c(C)cc(C)cc2C)cc(OC)c1OC | -1.98
CN(C)c1ccc(C(CNS(=O)(=O)c2ccc([N+](=O)[O-])cc2)N2CCCC2)cc1 (centres unmarked) | -47.2
CCNC(=O)COC(=O)/C=C/c1ccccc1[N+](=O)[O-] | 7
CCc1ccccc1N(CC(=O)OC)S(C)(=O)=O | 14.4
O=C(NCC(=O)N1CCOCC1)c1ccc(Br)o1 | 17.4
CC(=O)Nc1cccc(-c2nnc(SCc3ccccc3C#N)n2C)c1 | 9.96
COC(=O)[C@@H]1C[C@H]2CC[C@H](O)C[C@H]2N1Cc1ccc(N2CCN(C)CC2)cc1 | 33.2
CCCn1c(=O)c2sccc2n2c(CCCC(=O)NCc3cccnc3)nnc12 | 19.2
Cc1ccccc1N1CCN(Cc2nc(Cc3ccccc3F)no2)CC1 | -3.53
C=CCSc1nc(C)c(CC(=O)OCC(C)C)c(=O)[nH]1 | -7.18
CCC(C)C(NC(=O)c1ccccc1NC(=O)c1ccc(OC)cc1)C(=O)NCCCn1ccnc1 (centres unmarked) | -1.96
Cc1cc(NC(=O)COc2ccc(F)c(Cl)c2)no1 | 17.7
CC1CC(C)CN(CCCNC(=O)CN2C(=O)c3cccnc3Oc3ccccc32)C1 (centres unmarked) | -5.15
CC(C)CC(=O)Nc1ccc(N2CCOCC2)cc1 | 7.68

Compound | hERG current change (%, negative = inhibition) at 10uM [%]
Oc1c(Cl)cc(Cl)cc1CNc1ccc(Br)cn1 | 4.21
O=C(NCCCN1CCOCC1)c1cc(-c2cccc(Br)c2)nc2ccccc12 | -32.3
CN(C1(C)CCS(=O)(=O)C1)S(=O)(=O)c1ccc(F)cc1 (centres unmarked) | 11.6
CCNC(=O)COC(=O)CCC(=O)c1ccc(F)cc1 | 0.157
CC(=O)Nc1ccc(NC(=O)C(C)OC(=O)c2ccc(OCc3c(C)noc3C)cc2)cc1 (centres unmarked) | -12.2
O=c1c2cc([N+](=O)[O-])cc([N+](=O)[O-])c2[nH]n1-c1ccccc1 | 17.2
CC(C)Sc1nsc2nc(=O)c(/C=C3\C=Nc4ccccc43)c(N)n12 | 11.7
CC1(C)CC(=O)C(C(c2ccco2)C2C(=O)CC(C)(C)CC2=O)C(=O)C1 | -0.337
CC(=O)N1c2ccccc2NC(=O)C1(C)C | 0.176
Cc1ccc(C(=O)NN=C2CCCCCC2)s1 | 3.68
COc1ccccc1-n1cnnc1SC(C)C(=O)Nc1cccc([N+](=O)[O-])c1 (centres unmarked) | -8.19
COc1cc(C(=O)Nc2cccc(C)c2C)c(Br)c(OC)c1OC | 0.146
COCCNC(=O)N1[C@H]2CC[C@@H]1C(C(=O)OC)=C(c1ccc(OC(F)(F)F)cc1)C2 | -3.99
CN1/C(=C/c2cccc[n+]2C)Sc2ccccc21.[I-] | -22.7
COc1ccc(C2C(C(=O)Nc3cccnc3)=C(C)Nc3nc(-c4cccs4)nn32)cc1OC (centres unmarked) | 7.87
CN1CCN(c2ccc(CNS(=O)(=O)Cc3ccc(Cl)cc3)cc2)CC1 | 4.63
CCOC(=O)C1CCN(C(=O)c2n[nH]c(=O)c3ccccc23)CC1 | 15.7
CCCCC(=O)Nc1cccc(C(=O)N/N=C/c2ccc(OC)cc2OC)c1 | 9.66
O=C(CNC(=S)N(Cc1ccc(F)cc1)C1CCCCC1)NCCN1CCOCC1 | 1.9
CC(C)(C)n1nc2c(c1NC(=O)c1ccccc1S(=O)(=O)C(F)F)CS(=O)(=O)C2 | 22.3
Cc1cc(C)n2nc(CC(=O)NNC(=O)COc3ccccc3)nc2n1 | -2.89
CCOc1ccc(-c2c(C(=O)N/N=C/c3ccccc3)nnn2-c2nonc2N)cc1 | 10.5
